# Test results: PubChem BioAssay AID1963576 (National Center for Advancing Translational Sciences (NCATS), 2024)
# The campaign covered roughly 46,000 compounds. About 60 (0.1%) were called active. Inconclusive results (about 3%) are left out. The call rests on the fitted dose curve; in most records, active means well fitted inhibition curve with a large enough effect; inconclusive means small, poorly fitted or top-dose-only effect; inactive means no such curve, though single readings can be large or run the other way. The list shows a part of the results.
# Assay: Primary qHTS assay for Inhibitors of ovarian cancer metastasis using an organotypic tumor microenvironment (TME) model. Further: nearly all actives have a fitted effect of over 65% in size.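 On activity change, negative = inhibition: plate controls were DMSO wells for no effect and tomatine positive control wells for full effect.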
# Settings: SKOV3ip1-GFP adhesion/invasion on 3D omental model, fluorescence; series mostly up to 45.8 µM; activity change, negative = inhibition: at the top concentration
# Outline: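 Primary human omental fibroblast/mesothelial 3D culture pre-formed 48 h. SKOV3ip1-GFP cells added with compounds (0.36-46 umol/L), incubated 2 h RT/16 h 37 C, fixed; GFP cells quantified at 488/509 nm.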
Compound,outcome,"activity change, negative = inhibition"
Cc1c(C(=O)N(Cc2ccco2)Cc2ccccc2Cl)oc2ccc(F)cc12,inactive,
CN(C)c1ccc(NC(=O)CSc2nc3ccsc3c(=O)n2CCCCCC(=O)O)cc1,,inactive: 0.686%
COc1cc(OC)c(NC(=O)C(Cc2ccccc2)NS(=O)(=O)c2cccc3nsnc23)cc1Cl (stereo not drawn),,inactive: 1.64%
Cc1ccccc1-c1noc(-c2ccc(N3CCN(C)CC3)c([N+](=O)[O-])c2)n1,,inactive: 4.78%
Cc1cc(C)c(NC(=O)C(=O)NCC(c2cccnc2)N2CCN(Cc3ccccc3)CC2)c(C)c1 (stereo not drawn),,inactive: -4.39%
COc1ccc(C)cc1NC(=O)Nc1ccccc1OCc1cc(=O)n2ccccc2n1,,inactive: -24.2%
CCCCNC(=O)c1cnc2sc(N3CCCCCC3)nn2c1=O,,inactive: -5.06%
COc1cccc(NC(=O)CSC2=Nc3ccccc3C3=NC(CC(=O)NCc4ccc5c(c4)OCO5)C(=O)N23)c1 (stereo not drawn),,inactive: -6.41%
COc1ccc(C2C(=O)N(C3CCC(C)CC3)CC(=O)N2C2CCCC2)cc1OC (stereo not drawn),inactive,
O=C(CSc1nc2nccnc2c(=O)n1CCc1c[nH]c2ccccc12)Nc1ccc(F)cc1,,inactive: 21.4%
COc1ccc(CC(=O)N(Cc2nc(-c3ccc(C)cc3)no2)C(C)C)cc1,inactive,
CSc1nn(Cc2cccc(Cl)c2)c(N(C(C)=O)C(C)=O)c1S(=O)(=O)c1ccccc1,,inactive: 9.85%
COc1ccc2c(c1)c1c(c(=O)n(-c3ccccc3)c(=O)n1CC(=O)NCc1ccc(C)cc1)n2C,,inactive: 11.6%
CN(C)c1ccc(C(CNS(=O)(=O)c2ccc(F)cc2)N2CCOCC2)cc1 (stereo not drawn),,inactive: -8.94%
COc1ccc(-n2cc(C(=O)OCc3ccc(Cl)cc3)c3ccccc3c2=O)cc1,,inactive: -2.85%
CCOc1ccc(CNC(=O)Cn2ccc3cc(S(=O)(=O)N4CCCCC4)ccc32)cc1,,inactive: 11.6%
COc1ccc(S(=O)(=O)N(CC(=O)NCCSCc2ccccc2)c2ccc(C)cc2)cc1,inactive,
Cc1ccc(NC(=O)CSc2ccc(-c3ccccn3)nn2)cc1F,,inactive: -17.9%
Cn1c(=O)c(=O)n(C)c2cc(S(=O)(=O)N3CCCC3C(=O)Nc3ccc(F)cc3)ccc21 (stereo not drawn),,inactive: 1.96%
COc1cc(C)c(C=CC(C)=CC=CC(C)=CC(=O)O)c(C)c1C,,inactive: -21.8%
CCOc1ccc(Nc2sc(C(=O)c3cccc(OC)c3)c(N)c2S(=O)(=O)c2ccccc2)cc1,,inactive: 8.01%
COc1ccc(NC(=O)C2CCN(S(=O)(=O)c3ccc4c(c3)CCCC(=O)N4)CC2)c(OC)c1,,inactive: 8.3%
CCC(C(=O)Nc1ccc(C(=O)OC)cc1)n1nc(-c2ccc(C)c(C)c2)ccc1=O (stereo not drawn),,inactive: 2.75%
COc1cc(OC)cc(C(=O)Nc2cc(-c3nc4cccnc4s3)ccc2C)c1,,inactive: -17.4%

Compound,outcome,"activity change, negative = inhibition"
Cc1c(C(=O)OC2CCCCCC2)[nH]c2c1C(=O)CC(c1ccc(N(C)C)cc1)C2 (stereo not drawn),,inactive: -12.7%
Cc1oc(C)c2c(=O)cc(-c3ccc4c(c3)OCO4)cc(OC(=O)c3cccc(Cl)c3)c12,,inactive: 0.44%
O=C(c1ccccc1Br)N1CCC(c2nc3ccccc3o2)CC1,inactive,
Cc1ccc(Cn2c(=O)n(-c3cc(C)cc(C)c3)c(=O)c3oc4ccccc4c32)cc1,,inactive: -4.5%
Cc1ccc(S(=O)(=O)NCc2ccc(C(=O)NCCc3cccc(C)c3)cc2)cc1,inactive,
COc1ccc(S(=O)(=O)N(Cc2nc(-c3ccc(Cl)cc3)no2)C2CCCCC2)cc1,inactive,
N#Cc1c(C(F)(F)F)cc(-c2cccs2)nc1SCC(=O)Nc1cccc(C(F)(F)F)c1,,inactive: -25.4%
O=C(Cn1c(SCC(=O)Nc2ccc(F)cc2)nc2ccccc21)NCc1ccccc1Cl,,inactive: -11.7%
COc1ccc(OC)c(NC(=O)CSc2nc3ccccc3c(=O)n2CCC(=O)NC2CCCCC2)c1,inactive,
CCCCOC(=O)c1cccc(NC(=O)/C=C/c2ccccc2Cl)c1,,inactive: -23.9%
Nc1ccccc1NC(=O)c1ccc(CNc2nccc(-c3cccnc3)n2)cc1,,inactive: 30.1%
CN1C(=O)C(C)(C)c2cc(S(=O)(=O)N3CCCC3C(=O)Nc3ccc(F)cc3)ccc21 (stereo not drawn),,inactive: 3.1%
CCOC(=O)COc1ccc(F)cc1C(=O)c1ccn2nc(-c3ccc(C)cc3)cc2n1,inactive,
COc1cc(C(=O)N(Cc2cccnc2)c2nc3cc(C)c(C)cc3s2)cc(OC)c1OC,inactive,
Cc1ccsc1CN(C(=O)COc1cccc(C)c1C)C1CCS(=O)(=O)C1 (stereo not drawn),,inactive: -4.25%
COc1cc(Cl)c(C)cc1NC(=O)c1sc2nc(C)cc(C)c2c1N,,inactive: 2.85%
COc1ccccc1NC(=O)C(Cc1ccccc1)NS(=O)(=O)c1cccc2nsnc12 (stereo not drawn),,inactive: -3.33%
CC(C)(C)OC(=O)Nc1ccc(-c2cc(C(=O)NCCCCCCC(=O)NO)no2)cc1,,inactive: 1.56%
Cc1ccc(N2CCN(C(=O)NCc3noc4ccc(C)cc34)CC2)c(C)c1,,inactive: 14.7%
Cc1ccccc1C(=O)N(Cc1ccc(N(C)C)cc1)CC1CCCO1 (stereo not drawn),inactive,
Cc1cccc(NC(=O)c2ccc(CNS(=O)(=O)c3ccc4c(c3)C(C)(C)C(=O)N4C)cc2)c1,,inactive: -22.9%
O=C(CCC1N=C2c3ccccc3N=C(SCC(=O)Nc3ccc(F)cc3)N2C1=O)NCc1cccs1 (stereo not drawn),,inactive: -6.72%
Cc1ccc(CNC(=O)c2sc3nc4n(c(=O)c3c2C)CCCCC4)cc1,,inactive: 41.1%
COC(=O)c1ccccc1NC(=O)C1CCCN(c2ncnc3onc(C)c23)C1 (stereo not drawn),,inactive: 5.44%

Compound,outcome,"activity change, negative = inhibition"
O=C(NCCOCCn1c(=O)oc2ccccc21)Nc1cccc(Cl)c1,inactive,
COc1ccccc1N=C1SC(C(=O)Nc2ccccc2OC)CC(=O)N1C (stereo not drawn),,inactive: 3.27%
CCOC(=O)c1noc2ncnc(NCc3ccccc3OC)c12,inactive,
COc1ccccc1NC(=O)CSC1=Nc2ccccc2C2=NC(CC(=O)NCc3ccc4c(c3)OCO4)C(=O)N12 (stereo not drawn),,inactive: -2.63%
Cc1ccc(-n2nc(C(=O)N(C)Cc3ccccc3)c3c4ccccc4n(C)c3c2=O)cc1,inactive,
Cc1ccc(C(=O)N(c2ccc(C)cc2)S(=O)(=O)c2ccc(Cl)cc2)cc1,,inactive: -2.8%
O=c1c2ccccc2n2c(-c3ccccc3F)nnc2n1CCc1ccccc1,,inactive: 2.35%
COc1cc(OC)c(N(C)C(=O)c2cc3c(=O)oc4ccccc4c3s2)cc1Cl,,inactive: 5.65%
CC(C)c1ccc(NC(=O)c2ccc3c(O)c(S(=O)(=O)c4ccccc4)c(=O)[nH]c3c2)cc1,,inactive: -3.67%
Cc1ccc(NC(=O)C(Cc2ccccc2)N2Cc3ccccc3C2=O)cc1Cl (stereo not drawn),,inactive: 4.09%
Cc1ccc(-n2c(=O)c3c(c4cc(C)ccc4n3C)n(Cc3ccc(F)cc3)c2=O)cc1,,inactive: -1.44%
CCCn1c(CCC(=O)Nc2ccc(C)c(Cl)c2)nc2cccnc21,,inactive: -17.5%
Cc1oc(-c2ccc(C(=O)NCc3ccccc3Cl)cc2)nc1CN1CCc2ccccc21,inactive,
COc1ccc(C)cc1NC(=O)c1cc(S(=O)(=O)N2CCc3ccccc3C2)ccc1F,,inactive: 13.5%
CCN(C(=O)c1c(C)oc2ncn(CC(C)C)c(=O)c12)c1cccc(Cl)c1,,inactive: 4.29%
CCCCNC(=O)CCn1c(=O)c2cccn2c2cccnc21,,inactive: -6.33%
Cc1ccc(S(=O)(=O)C(CNC(=O)C(=O)NCCc2ccc(Cl)cc2)c2cccs2)cc1 (stereo not drawn),,inactive: -0.627%
Cc1ccc(CCNC(=O)c2c[nH]c3ccc(S(=O)(=O)Nc4cccc(C(F)(F)F)c4)cc3c2=O)cc1,,inactive: -4.3%
CCC1=C(c2ccc(C)cc2)S(=O)(=O)N=C1N1CCC(C(=O)NCCc2ccc(Cl)cc2)CC1,,inactive: 1.94%
O=C(CC1N=C2c3ccccc3N=C(SCc3cccc(Cl)c3)N2C1=O)NCCc1ccccc1 (stereo not drawn),,inactive: 0.261%
COc1ccc(C(CC(=O)Nc2cc(OC)c(OC)c(OC)c2)N2Cc3ccccc3C2=O)cc1 (stereo not drawn),,inactive: 0.595%
O=C(Nc1cnn(Cc2ccc(Cl)cc2Cl)c1)c1noc2c1CCc1ccccc1-2,inactive,
O=C(CCS(=O)(=O)c1cc2c3c(c1)CCN3C(=O)CC2)Nc1cccc(Br)c1,inactive,
CCOc1ccc(CCNC(=O)c2ccc3c(c2)N(Cc2ccccc2F)C(=O)c2ccccc2S3=O)cc1OCC (stereo not drawn),,inactive: -11.7%

Compound,outcome,"activity change, negative = inhibition"
COc1ccc(CCNS(=O)(=O)c2cc(-c3onc(C)c3C)ccc2OC)cc1OC,,inactive: 4.86%
O=C(Cn1c(=O)nc(-c2ccccc2)c2cc(Cl)ccc21)NCc1ccc(Cl)cc1,,inactive: 14.1%
CCCS(=O)(=O)N1CC(=O)N(c2ccc(C)cc2C)C(C)(C(=O)NC2CCCCCC2)C1 (stereo not drawn),inactive,
O=c1c(S(=O)(=O)c2ccccc2)cn(Cc2cccc(F)c2)c2cc(N3CCCC3)c(F)cc12,,inactive: 32.7%
COc1ccccc1N1CCN(S(=O)(=O)CCNC(=O)Cc2ccc(Cl)cc2)CC1,,inactive: -1.69%
CCOC(=O)N1CCc2c(sc(NCc3cccs3)c2C(=O)Nc2ccc(OC)cc2OC)C1,,inactive: -1.03%
CCCCN(C)CCNC(=O)CN1C(=O)CSc2ccc(S(=O)(=O)N3CCCCC3)cc21,inactive,
Cc1cc2c(cc1S(=O)(=O)CCC(=O)N1CCCCC1C)OCC(=O)N2 (stereo not drawn),inactive,
O=C(COCc1cc(-c2ccc3c(c2)OCO3)on1)Nc1cc(C(F)(F)F)ccc1Cl,,inactive: -0.0558%
CCN1CCN(CCCNC(=O)Cn2c(-c3cccs3)cc3cc(F)ccc32)CC1,,inactive: 7%
CCc1ccc(NC(=O)CSc2nc(=O)n(Cc3ccncc3)c3c2CCC3)cc1,,inactive: -1.07%
Cc1ccc(C)c(Nc2nn3c(=O)c4cc5c(cc4nc3s2)OCO5)c1,,inactive: 3.55%
Cc1ccc2oc(=O)n(Cc3ccccc3Cl)c2c1,,inactive: 1.94%
Cc1ccc2oc(-c3cc(NC(=O)c4oc5ccccc5c4C)ccc3Cl)nc2c1,,inactive: -7.58%
CN(Cc1ccc(F)cc1)S(=O)(=O)c1nnc(NC(=O)c2ccccc2)s1,inactive,
CCCNC(=O)C1CCC(CNS(=O)(=O)c2ccc3c(c2)CC(C)N3C(C)=O)CC1 (stereo not drawn),,inactive: 4.59%
Clc1cccc(-n2nnnc2NCc2ccccc2Oc2ccccn2)c1Cl,,inactive: 0.741%
CCc1ccc(OCC(=O)Nc2cc(-c3nc4cc(C)ccc4o3)ccc2C)cc1,,inactive: 2.47%
Cc1ccc(C(=O)NCc2ccccc2)cc1NC(=O)c1nsc2ccccc12,,inactive: 2.4%
CCOc1ccc(Nc2ncnc3scc(-c4ccc(OC)cc4)c23)cc1,,inactive: 16.2%
Cc1ccc(NC(=O)c2oc3ccccc3c2NC(=O)C23CC4CC(CC(C4)C2)C3)cc1,,inactive: -6.98%
